These are yes or no findings as the source states them, for the method shown. For some of these results: Binding seen in cells or lysates may run through a third protein. Some results given as binding are weak or reduced against the parent protein; the word gives no strength. For some of these results: Tags and fused reporters may be left off the sequences shown.
Legend:
[1] = molecular target: endogenous Cullin1 (SK-Mel-37 cells) (human (endogenous in SK-Mel-37)) (UniProt Q13616); test: co-IP; endogenous proteins, SK-Mel-37 cell lysates, immunoprecipitates with indicated antibodies, rabbit IgG as negative control; immunoblotting
FLAG-Cullin1 [2] = molecular target: FLAG-Cullin1 (UniProt Q13616); test: co-IP; HEK293T cells transfected with FLAG-Cullin1, HA-Skp1 and GFP-MAGE-C2 or GFP; immunoprecipitated with anti-FLAG antibody; immunoblotting
myc-tagged Cullin1 FL = myc-tagged Cullin1 FL (UniProt Q13616); test: co-IP; HEK293T cells co-transfected with two tagged proteins; lysates in IP buffer, antibody (anti-FLAG, anti-HA or anti-myc) and protein A-sepharose beads, 4°C, 2–3 h; immunoblotting
FLAG-Cullin1 [3] = molecular target: FLAG-Cullin1 (UniProt Q13616); test: as above
FLAG-Fbw7 = FLAG-Fbw7 (UniProt Q969H0); test: as above
FLAG-Skp2 = FLAG-Skp2 (UniProt Q13309); test: as above
FLAG-Skp1 (human) = FLAG-Skp1 (human) (UniProt P63208); test: as above
[4] = molecular target: endogenous Skp1 (A375 cells) (human (endogenous in A375)) (UniProt P63208); test: proximity ligation; in situ PLA (Duolink) in fixed, permeabilised A375 cells; mouse anti-MAGE-C2 with rabbit anti-Cullin1, anti-Rbx1 or anti-Skp1; endogenous proteins
[5] = molecular target: endogenous Cullin1 (A375 cells) (human (endogenous in A375)) (UniProt Q13616); test: as above
GST-Skp1 (human) = GST-Skp1 (human) (UniProt P63208); test: pull-down; about 10 μg glutathione Sepharose-linked GST-fusion protein incubated with purified protein in 200 μl GST binding buffer (PBS, 0.1% NP-40, 5 mM dithiothreitol, protease inhibitors), overnight, 4°C; Western blotting; both purified

The chains behind the UniProt entries cited, without tags or fusion partners.
UniProt Q13616: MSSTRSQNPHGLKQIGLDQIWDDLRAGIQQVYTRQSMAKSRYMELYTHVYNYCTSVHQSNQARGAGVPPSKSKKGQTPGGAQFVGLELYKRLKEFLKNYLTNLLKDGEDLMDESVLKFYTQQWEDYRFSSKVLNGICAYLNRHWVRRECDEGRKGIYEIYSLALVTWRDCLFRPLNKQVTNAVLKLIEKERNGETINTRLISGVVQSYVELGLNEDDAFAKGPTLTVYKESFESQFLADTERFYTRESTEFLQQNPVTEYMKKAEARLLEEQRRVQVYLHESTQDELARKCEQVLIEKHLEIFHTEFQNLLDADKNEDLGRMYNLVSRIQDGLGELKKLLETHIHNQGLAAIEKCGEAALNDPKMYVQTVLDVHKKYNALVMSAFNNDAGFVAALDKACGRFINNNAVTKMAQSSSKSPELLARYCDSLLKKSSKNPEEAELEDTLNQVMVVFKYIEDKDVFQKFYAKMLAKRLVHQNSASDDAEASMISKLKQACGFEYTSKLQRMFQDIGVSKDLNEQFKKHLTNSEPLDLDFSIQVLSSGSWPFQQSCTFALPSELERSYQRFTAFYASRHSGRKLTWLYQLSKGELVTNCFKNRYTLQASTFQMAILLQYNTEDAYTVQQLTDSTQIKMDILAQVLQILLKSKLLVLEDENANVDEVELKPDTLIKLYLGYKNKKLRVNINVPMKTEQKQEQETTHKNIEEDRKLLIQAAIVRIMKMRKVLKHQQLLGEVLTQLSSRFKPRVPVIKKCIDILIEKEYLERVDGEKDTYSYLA
UniProt Q969H0: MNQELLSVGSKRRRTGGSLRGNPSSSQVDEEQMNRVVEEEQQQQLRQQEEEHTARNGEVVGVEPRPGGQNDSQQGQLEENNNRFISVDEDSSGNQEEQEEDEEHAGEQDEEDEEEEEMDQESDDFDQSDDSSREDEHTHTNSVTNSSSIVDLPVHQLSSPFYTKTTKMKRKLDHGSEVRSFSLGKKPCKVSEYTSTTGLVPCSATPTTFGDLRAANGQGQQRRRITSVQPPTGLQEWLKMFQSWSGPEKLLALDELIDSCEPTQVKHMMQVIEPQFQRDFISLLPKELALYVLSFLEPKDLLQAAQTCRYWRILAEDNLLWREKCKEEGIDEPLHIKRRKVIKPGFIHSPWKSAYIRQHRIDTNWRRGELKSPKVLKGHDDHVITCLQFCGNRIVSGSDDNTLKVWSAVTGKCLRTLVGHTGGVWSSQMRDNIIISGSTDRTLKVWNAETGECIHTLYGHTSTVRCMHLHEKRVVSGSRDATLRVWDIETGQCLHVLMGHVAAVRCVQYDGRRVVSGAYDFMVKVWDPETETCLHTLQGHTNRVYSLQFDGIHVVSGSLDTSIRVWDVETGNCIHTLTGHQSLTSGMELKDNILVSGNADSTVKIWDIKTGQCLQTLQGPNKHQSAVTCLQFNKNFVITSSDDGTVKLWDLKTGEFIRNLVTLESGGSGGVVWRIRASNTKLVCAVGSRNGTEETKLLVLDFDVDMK
UniProt Q13309: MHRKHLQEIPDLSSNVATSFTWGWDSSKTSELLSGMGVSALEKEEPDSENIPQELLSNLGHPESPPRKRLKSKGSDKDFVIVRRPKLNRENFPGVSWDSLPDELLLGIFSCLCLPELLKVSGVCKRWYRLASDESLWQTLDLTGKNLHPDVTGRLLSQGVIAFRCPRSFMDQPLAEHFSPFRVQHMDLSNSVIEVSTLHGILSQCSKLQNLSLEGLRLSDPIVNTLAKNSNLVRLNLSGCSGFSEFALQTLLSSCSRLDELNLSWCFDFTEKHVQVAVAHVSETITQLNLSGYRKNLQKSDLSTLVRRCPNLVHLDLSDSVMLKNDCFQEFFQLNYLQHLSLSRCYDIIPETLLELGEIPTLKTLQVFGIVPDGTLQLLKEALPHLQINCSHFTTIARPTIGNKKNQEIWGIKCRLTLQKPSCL
UniProt P63208: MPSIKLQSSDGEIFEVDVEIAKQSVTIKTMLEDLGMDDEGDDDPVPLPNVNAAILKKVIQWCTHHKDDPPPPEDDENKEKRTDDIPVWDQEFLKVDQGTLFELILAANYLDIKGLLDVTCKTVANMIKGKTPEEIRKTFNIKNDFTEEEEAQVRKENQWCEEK

B1: endogenous MAGE-C2 (SK-Mel-37 cells) (protein, UniProt Q9UBF1 1-373)
chain: MPPVPGVPFRNVDNDSPTSVELEDWVDAQHPTDEEEEEASSASSTLYLVFSPSSFSTSSSLILGGPEEEEVPSGVIPNLTESIPSSPPQGPPQGPSQSPLSSCCSSFSWSSFSEESSSQKGEDTGTCQGLPDSESSFTYTLDEKVAELVEFLLLKYEAEEPVTEAEMLMIVIKYKDYFPVILKRAREFMELLFGLALIEVGPDHFCVFANTVGLTDEGSDDEGMPENSLLIIILSVIFIKGNCASEEVIWEVLNAVGVYAGREHFVYGEPRELLTKVWVQGHYLEYREVPHSSPPYYEFLWGPRAHSESIKKKVLEFLAKLNNTVPSSFPSWYKDALKDVEERVQATIDTADDATVMASESLSVMSSNVSFSE
B1 was tested, and the binding [1] was “binds”.

B2: GFP-MAGE-C2 (protein, UniProt Q9UBF1 1-373)
chain: B1 chain
With B2 the binding (FLAG-Cullin1 [2]) was “binds”.

B3: FLAG-MAGE-C2 (protein, UniProt Q9UBF1 1-373)
chain: B1 chain
In the case of B3, the binding (myc-tagged Cullin1 FL) is reported as “binds”.

B4: MAGE-C2 Δ148–314 (protein, UniProt Q9UBF1)
chain: MPPVPGVPFRNVDNDSPTSVELEDWVDAQHPTDEEEEEASSASSTLYLVFSPSSFSTSSSLILGGPEEEEVPSGVIPNLTESIPSSPPQGPPQGPSQSPLSSCCSSFSWSSFSEESSSQKGEDTGTCQGLPDSESSFTYTLDEKVAELEFLAKLNNTVPSSFPSWYKDALKDVEERVQATIDTADDATVMASESLSVMSSNVSFSE
In the case of B4, the binding (FLAG-Cullin1 [3]) is reported as “binds”.

B5: MAGE-C2 Δ31–147 (protein, UniProt Q9UBF1)
chain: MPPVPGVPFRNVDNDSPTSVELEDWVDAQHLVEFLLLKYEAEEPVTEAEMLMIVIKYKDYFPVILKRAREFMELLFGLALIEVGPDHFCVFANTVGLTDEGSDDEGMPENSLLIIILSVIFIKGNCASEEVIWEVLNAVGVYAGREHFVYGEPRELLTKVWVQGHYLEYREVPHSSPPYYEFLWGPRAHSESIKKKVLEFLAKLNNTVPSSFPSWYKDALKDVEERVQATIDTADDATVMASESLSVMSSNVSFSE
B5 was tested, and the binding (FLAG-Cullin1 [3]) was “binds”.

B6: MAGE-C2 Δ245–373 (domain or fragment, UniProt Q9UBF1 1-244)
chain: MPPVPGVPFRNVDNDSPTSVELEDWVDAQHPTDEEEEEASSASSTLYLVFSPSSFSTSSSLILGGPEEEEVPSGVIPNLTESIPSSPPQGPPQGPSQSPLSSCCSSFSWSSFSEESSSQKGEDTGTCQGLPDSESSFTYTLDEKVAELVEFLLLKYEAEEPVTEAEMLMIVIKYKDYFPVILKRAREFMELLFGLALIEVGPDHFCVFANTVGLTDEGSDDEGMPENSLLIIILSVIFIKGNCA
In the case of B6, the binding (FLAG-Cullin1 [3]) is reported as “binds”.

B7: HA-MAGE-C2 (protein, UniProt Q9UBF1 1-373)
chain: B1 chain
For B7, the binding (FLAG-Fbw7) was “binds”, the binding (FLAG-Skp2) was “no binding” and the binding (FLAG-Cullin1 [3]) was “binds”. The binding (FLAG-Skp1 (human)) was “no binding”.

B8: endogenous MAGE-C2 (A375 cells) (protein, UniProt Q9UBF1 1-373)
chain: B1 chain
B8 was tested, and the binding [4] was “no binding” and the binding [5] was “binds”.

B9: Recombinant human MAGE-C2 protein (protein, UniProt Q9UBF1 1-373)
chain: B1 chain
B9 was tested, and the binding (GST-Skp1 (human)) was “no binding”.

Source: paper PMC4747207
